Experimental data: PubChem BioAssay AID720709 (National Center for Advancing Translational Sciences (NCATS), 2013)
The whole screen tested about 360,000 compounds, of which about 520 (0.14%) were called active. This list was built around the results that the source calls inconclusive (neither active nor inactive); the mix of calls is not that of the screen. The call rests on the fitted dose curve; in most records, active means well fitted inhibition curve with a large enough effect; inconclusive means small, poorly fitted or top-dose-only effect; inactive means no such curve, though single readings can be large or run the other way. No potency is given beside an inconclusive call; the fits are too rough.
Further: nearly all actives have a fitted effect of over 50% in size.
Potency means the concentration at half of the fitted maximal effect; tags describe the fitted curve by direction and shape.
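Wherever activity change, negative = inhibition is given: plate controls were vehicle for no effect and positive control for full effect.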

What follows are molecules tested against Rap guanine nucleotide exchange factor 3 (Homo sapiens) (UniProt O95398) (assay: qHTS for Antagonist of cAMP-regulated guanine nucleotide exchange factor 3 (EPAC1): primary screen). Conditions: EPAC1 GEF assay, Rap1b-BODIPY-GDP exchange fluorescence; activity change, negative = inhibition: at 115 µM (top of the series).
Sequence of UniProt O95398 (O95398 whole entry, looked up): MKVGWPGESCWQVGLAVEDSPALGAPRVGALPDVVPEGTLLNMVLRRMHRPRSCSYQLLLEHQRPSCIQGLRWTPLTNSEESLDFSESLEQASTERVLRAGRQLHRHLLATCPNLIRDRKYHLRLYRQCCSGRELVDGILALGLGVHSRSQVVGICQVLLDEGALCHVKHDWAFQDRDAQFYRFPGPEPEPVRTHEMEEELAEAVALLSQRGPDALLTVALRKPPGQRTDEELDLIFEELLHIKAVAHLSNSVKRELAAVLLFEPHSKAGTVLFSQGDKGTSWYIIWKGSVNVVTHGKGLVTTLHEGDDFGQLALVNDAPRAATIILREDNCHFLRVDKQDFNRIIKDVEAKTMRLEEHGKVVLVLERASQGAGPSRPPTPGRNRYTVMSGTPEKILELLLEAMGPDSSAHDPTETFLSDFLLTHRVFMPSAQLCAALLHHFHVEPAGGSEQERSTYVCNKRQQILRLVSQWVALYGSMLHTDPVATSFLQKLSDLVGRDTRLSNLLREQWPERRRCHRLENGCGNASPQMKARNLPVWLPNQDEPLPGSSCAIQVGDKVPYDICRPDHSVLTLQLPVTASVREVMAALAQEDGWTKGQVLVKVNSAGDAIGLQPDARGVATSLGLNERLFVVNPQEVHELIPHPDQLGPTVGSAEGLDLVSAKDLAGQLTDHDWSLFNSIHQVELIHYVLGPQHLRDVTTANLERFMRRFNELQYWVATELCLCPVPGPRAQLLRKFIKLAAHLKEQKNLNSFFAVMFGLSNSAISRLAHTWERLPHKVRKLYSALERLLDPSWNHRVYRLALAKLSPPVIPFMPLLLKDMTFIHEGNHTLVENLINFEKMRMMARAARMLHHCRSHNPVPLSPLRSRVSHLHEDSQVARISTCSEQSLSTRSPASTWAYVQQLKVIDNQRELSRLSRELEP
For `Cc1ccc(NC(=O)CCC(=O)NNC(=S)Nc2ccccc2)c(C)c1`, the “activity change, negative = inhibition” value was inactive: 5.55%. `CCOc1ccc(OCCCC(=O)Nc2cc(S(=O)(=O)N3CCOCC3)ccc2N2CCOCC2)cc1` was tested, and the Potency was inconclusive [inhibitor, full curve, poor fit]. For `O=C(/C=C/c1ccco1)Nc1nc(-c2ccccn2)cs1`, the Potency was inconclusive [inhibitor, partial curve]. For `COc1ccc(OC)c(NC(=O)c2nnn(CCc3ccccc3)c2N)c1`, the Potency was inconclusive [inhibitor, partial curve, poor fit]. For `CCCCCCCCC(=O)N/N=C(\C)c1ccc(O)cc1O`, the Potency was inconclusive [inhibitor, partial curve, poor fit]. With `CCOC(=O)c1c(C)[nH]c(C2=NNC(=Nc3ccccc3)SC2)c1C` the “activity change, negative = inhibition” value was inactive: -1.57%. In the case of `Nc1nc2ccccc2n1CCOc1ccc(Cl)cc1`, the “activity change, negative = inhibition” value is reported as inactive: -20.7%. For `O=C1OCCOC2CCCc3oc(-c4ccccc4)c1c32` (stereo not given), the Potency was inconclusive [inhibitor, single point]. For `NS(=O)(=O)c1ccc(NC(=O)C2Cc3ccccc3CN2C(=O)c2ccco2)cc1` (stereo not given), the Potency was inconclusive [inhibitor, full curve]. With `CCn1c(=O)c(C(=O)Nc2ccccc2S(N)(=O)=O)c(O)c2ccccc21` the Potency was active: 56.2 µM. `COc1ccc(-c2noc(N3CCCC(C(=O)Nc4ccc(C(C)=O)cc4)C3)n2)cc1` (stereo not given) was tested, and the Potency was inconclusive [inhibitor, full curve, poor fit]. For `CC(=O)Nc1ccc(/C=C2\CCc3ccccc3C2=O)cc1`, the Potency was inconclusive [inhibitor, partial curve]. `Cc1cccc(NC(=O)Cn2c(/C=C/c3ccccc3)nc3ccccc32)c1` was tested, and the Potency was inconclusive [inhibitor, single point]. With `Cc1onc(-c2ccccc2)c1C(=O)N/N=C/c1c[nH]c2ccccc12` the Potency was inconclusive [inhibitor, partial curve, poor fit]. With `COc1ccc(OCC(=O)N(Cc2sccc2C)C2CCS(=O)(=O)C2)cc1` (stereo not given) the Potency was inconclusive [inhibitor, partial curve]. For `COCCOC(=O)c1ccc(NC(=O)COc2ccc([N+](=O)[O-])cc2)cc1`, the activity change, negative = inhibition was inconclusive: -16.9% [inhibitor]. `Cc1ccc(NC(=O)CSc2nc3ccccc3c(=O)n2Cc2cccs2)cc1` was tested, and the Potency was inconclusive [inhibitor, full curve, poor fit]. With `O=C(O)c1ccc(N/N=C/c2cn(Cc3ccccc3F)c3ccccc23)cc1` the Potency was inconclusive [inhibitor, single point]. For `Oc1ccccc1C1CCCCC1c1ccccc1` (stereo not given), the Potency was inconclusive [inhibitor, full curve]. In the case of `Cc1cc(N)n(-c2ccc(C(=O)O)cc2)n1`, the Potency is reported as inconclusive [inhibitor, single point]. `Cc1cccc(OCCCC(=O)Nc2ccc(S(N)(=O)=O)cc2)c1` was tested, and the Potency was inconclusive [inhibitor, full curve]. In the case of `N/C(=N\N=C/c1ccc(Br)cc1)N/N=C\c1ccc(Br)cc1`, the “activity change, negative = inhibition” value is reported as inactive: 11.5%. For `CC1(c2ccc(Cl)cc2)NC(=O)N(CC(=O)N2CCc3ccccc3C2)C1=O` (stereo not given), the Potency was inconclusive [inhibitor, full curve, poor fit]. For `Cc1ccc(NS(=O)(=O)c2ccc(C(=O)N3CC(C)CC(C)C3)cc2)cc1` (stereo not given), the “activity change, negative = inhibition” value was inactive: -11.7%. In the case of `CC1CC(C)CN(c2nc3c(c(=O)n(C)c(=O)n3C)n2CCSc2ncccn2)C1` (stereo not given), the Potency is reported as inconclusive [inhibitor, single point]. `Cc1cc(C)c2nc3sc(=Cc4ccc(-c5ccccc5C(=O)O)o4)c(=O)n3c2c1` was tested, and the Potency was inconclusive [inhibitor, partial curve, poor fit]. For `CCN(CC)c1ccc(/C=N/N=C(c2ccccc2)c2ccccc2)c(O)c1`, the Potency was inconclusive [inhibitor, full curve, poor fit]. `CC(C)Sc1oc(-c2ccco2)nc1S(=O)(=O)c1ccc(F)cc1` was tested, and the Potency was inconclusive [inhibitor, single point]. With `CC(C)OC(=O)c1cc2c(ccn2C)n1CC(=O)N(Cc1ccccc1)c1ccc(F)cc1` the Potency was inconclusive [inhibitor, full curve]. In the case of `COc1cc2ccc(=O)oc2cc1O`, the “activity change, negative = inhibition” value is reported as inactive: 0.498%. With `CCn1c(SCC(=O)Nc2ccccc2Cl)nnc1C1CC1` the Potency was inconclusive [inhibitor, partial curve, poor fit]. For `COc1ccc(OC)c(/C=N/NC(=O)CCN2CCN(C(c3ccccc3)c3ccccc3)CC2)c1`, the Potency was inconclusive [inhibitor, single point]. For `COc1ccc(-c2cc(C(=O)OCC(=O)N(C)C3CCS(=O)(=O)C3)c3ccccc3n2)cc1OC` (stereo not given), the Potency was inconclusive [inhibitor, partial curve]. For `CC(=O)NNC(=O)c1sc(=S)n2c1[nH]c(=O)c1sccc12`, the Potency was inconclusive [inhibitor, full curve]. In the case of `CCOC(=O)CN(C(=O)c1snc(C(N)=O)c1N)C(C(=O)NC1CCCCC1)c1ccc(F)cc1` (stereo not given), the Potency is reported as inconclusive [inhibitor, partial curve]. With `CCOC(=O)C(C)Sc1nnc(-c2c[nH]c3ccccc23)n1C` (stereo not given) the “activity change, negative = inhibition” value was inactive: 1.39%. With `COc1ccc(C(=O)N/N=C/c2c(CO)cnc(C)c2O)cc1` the Potency was inconclusive [inhibitor, partial curve]. For `CCCC(=O)OCCNc1cc(SCc2ccco2)c2nonc2c1[N+](=O)[O-]`, the Potency was active: 39.8 µM. With `O=C(O)c1cccc(N/N=C/c2cn(-c3ccccc3)nc2-c2cccs2)c1` the “activity change, negative = inhibition” value was inactive: -16.9%. With `Cc1ccc(C(=O)C(c2ccccc2)N2Cc3ccccc3C2=N)cc1` (stereo not given) the Potency was inconclusive [inhibitor, single point]. `O=[N+]([O-])c1cccc2ccc(/C=C/c3cccc(Br)c3)nc12` was tested, and the “activity change, negative = inhibition” value was inactive: -24.6%. `CCOC(=O)C(NC(=O)N(C)C)(Nc1sc(C)c(CC)c1C#N)C(F)(F)F` (stereo not given) was tested, and the Potency was inconclusive [inhibitor, single point]. For `Cn1cc(CNCc2cn(C)nc2-c2ccc(C3CCCCC3)cc2)cn1`, the Potency was inconclusive [inhibitor, single point]. `O=[N+]([O-])c1ccccc1N=Nc1ccc(O)cc1O` was tested, and the Potency was inconclusive [inhibitor, partial curve]. For `COc1ccc(NC(=S)N(Cc2ccc(N(C)C)cc2)Cc2ccco2)cc1`, the Potency was inconclusive [inhibitor, partial curve, poor fit]. For `COc1cc([C@H]2c3[nH]c4ccccc4c3C[C@H]3C(=O)N4[C@@H](c5cc(OC)c(OC)c(OC)c5)c5[nH]c6ccccc6c5C[C@H]4C(=O)N23)cc(OC)c1OC`, the “activity change, negative = inhibition” value was inactive: -8.98%. For `O=S(=O)(Nc1ccc(Cl)cc1)c1ccc(N2CCOCC2)c(NC(=S)NC2CC2)c1`, the “activity change, negative = inhibition” value was inactive: -12%. With `Cc1ccc(-c2cc(C(=O)N(C)Cc3cnn(C)c3C)c3cc(Br)ccc3n2)cc1` the Potency was inconclusive [inhibitor, single point]. With `c1ccc2c(c1)CCCN2c1nc2ccccc2n2cnnc12` the Potency was inconclusive [inhibitor, full curve]. For `O=C(c1cc(=O)[nH]c2ccccc12)N1CCN(c2ccc([N+](=O)[O-])cc2)CC1`, the Potency was inconclusive [inhibitor, full curve, poor fit]. For `Cc1cccc(C(=O)NC2C(=O)NNC2c2ccc(Cl)cc2)c1` (stereo not given), the “activity change, negative = inhibition” value was inactive: -6.12%. In the case of `Cc1cc(C(=O)NCc2ccco2)c2ccccc2n1`, the Potency is reported as inconclusive [inhibitor, single point]. `CCc1nnc(NS(=O)(=O)c2ccc(NC(=S)NC(=O)/C=C/c3cccs3)cc2)s1` was tested, and the Potency was active: 35.5 µM. `CCCCCNCC(=O)Nc1cccc(C(=O)Nc2cccc(C(F)(F)F)c2)c1` was tested, and the Potency was inconclusive [inhibitor, partial curve]. `Cc1nc2c(C(=O)NCc3ccc4c(c3)OCO4)c[nH]n2c(=O)c1Cc1ccccc1F` was tested, and the Potency was inconclusive [inhibitor, single point]. In the case of `CCCCCCC(NC(=O)Cc1ccc2ccccc2c1)C(=O)O` (stereo not given), the Potency is reported as inconclusive [inhibitor, single point]. In the case of `CCOC(=O)C1CCN(Cc2ccc(OC)c(OCc3ccccc3)c2)CC1`, the Potency is reported as inconclusive [inhibitor, single point]. For `COc1ccccc1CNC(=O)c1ccc(CNc2c(N3CCCC3)c(=O)c2=O)cc1`, the Potency was inconclusive [inhibitor, single point]. `CC1(C(=O)Nc2ccc3c(c2)OCCO3)CCN1Cc1ccc(-c2ccccn2)cc1` (stereo not given) was tested, and the “activity change, negative = inhibition” value was inactive: 5.35%. In the case of `COC(=O)C1CC2=C(CCCC2=O)N(c2ccccc2)C1=O` (stereo not given), the Potency is reported as inconclusive [inhibitor, single point]. `CCOC(=O)c1ccc(-n2c(N)c(C(=O)NCc3ccco3)sc2=S)cc1` was tested, and the Potency was inconclusive [inhibitor, partial curve]. In the case of `O=C(C1=C(Nc2ccccc2)c2ccccc2S(=O)(=O)N1)c1ccccc1`, the Potency is reported as inconclusive [inhibitor, partial curve]. In the case of `CCOC(=O)c1ccc2nc3c(cc2c1)CCS3`, the “activity change, negative = inhibition” value is reported as inactive: 13.8%. With `Cc1ccc(C)c(-n2ccnc2SCC(=O)c2c(N)n(C3CC3)c(=O)[nH]c2=O)c1` the Potency was inconclusive [inhibitor, full curve]. `CN(C)S(=O)(=O)c1cccc(NC(=O)CCCSc2ccccc2)c1` was tested, and the Potency was inconclusive [inhibitor, partial curve, poor fit].
